According to the supplement of paper PMC4967469:
pIC50: −log10 of the molar value. By IC50 is meant the dose at which the fit gives 50% viability; a fit beyond the top or the lowest dose is shown as a bound at that dose. AUC, from the same fit, is the share of area under the viability curve across the 256-fold dose range; the more sensitive the line, the further below 1. For part of these data: Any top dose called inferred was calculated from the reported fits. For part of these data: Drugs with an entry number were screened twice under separate entries, and the two screens often disagree.

Experiments:
Assay in all cases: Viability of human cancer cell lines after 72 h of drug (GDSC screen)
GSK690693 = compound: CCn1c(-c2nonc2N)nc2c(C#CC(C)(C)O)ncc(OC[C@H]3CCCNC3)c21 [GSK690693]; conditions: top dose 10.24 µM; top dose inferred
Method: (§1)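 Human cancer cell lines in 384-well plates, medium with 10% serum, drug for 72 h over a 256-fold dose range (nine 2-fold or five 4-fold steps up to the top dose). Adherent lines were fixed and stained with the nucleic acid dye Syto60, suspension lines read with resazurin; signal relative to control wells, capped at 0 and 100%. One two-parameter sigmoid per drug and line, fitted in a mixed model over all curves with the slope shared within a line.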

BX-795 = compound: O=C(NCCCNc1nc(Nc2cccc(NC(=O)N3CCCC3)c2)ncc1I)c1cccs1 [BX-795]; conditions: top dose 5 µM; top dose inferred
Method: as §1

PI-103 = compound: Oc1cccc(-c2nc(N3CCOCC3)c3oc4ncccc4c3n2)c1 [PI-103]; conditions: top dose 10.24 µM
Method: as §1

Tretinoin = compound: CC1=C(/C=C/C(C)=C/C=C/C(C)=C/C(=O)O)C(C)(C)CCC1 [Tretinoin]; conditions: top dose 10 µM; top dose inferred
Method: as §1

UNC0638 = compound: COc1cc2c(NC3CCN(C(C)C)CC3)nc(C3CCCCC3)nc2cc1OCCCN1CCCC1 [UNC0638]
Method: as §1

SB-505124 = compound: Cc1cccc(-c2[nH]c(C(C)(C)C)nc2-c2ccc3c(c2)OCO3)n1 [SB-505124]; conditions: top dose 10 µM; top dose inferred
Method: as §1

[1] = top dose 20 µM, screen: GDSC drug entry 1236, top dose inferred
[2] = top dose 40 µM, screen: GDSC drug entry 245

| Cell Line | AUC (GSK690693) | pIC50 (GSK690693) | AUC (BX-795) | pIC50 (BX-795) | AUC (PI-103) | pIC50 (PI-103) | AUC (Tretinoin) | pIC50 (Tretinoin) | AUC (UNC0638; [1]) | pIC50 (UNC0638; [1]) | AUC (UNC0638; [2]) | pIC50 (UNC0638; [2]) | AUC (SB-505124) | pIC50 (SB-505124) |
| --- | --- | --- | --- | --- | --- | --- | --- | --- | --- | --- | --- | --- | --- | --- |
| 23132-87 (stomach, adherent) | 0.864 | 5.02 | 0.943 | < 5.30 | 0.576 | 5.98 | 0.985 | < 5.00 | 0.885 | < 4.70 | 0.743 | 4.89 | 0.985 | < 5.00 |
| A431 (skin, adherent) | 0.932 | < 4.99 | 0.814 | 5.59 | 0.761 | 5.46 | 0.939 | < 5.00 | 0.954 | < 4.70 | 0.818 | 4.67 | 0.986 | < 5.00 |
| A2780 (ovary, semi-adherent) | 0.826 | 5.19 | 0.906 | < 5.30 | 0.182 | 7.17 | 0.881 | < 5.00 | 0.867 | 4.72 | 0.717 | 4.97 | 0.934 | < 5.00 |
| AGS (stomach, adherent) | 0.973 | < 4.99 | 0.733 | 5.88 | 0.813 | 5.32 | 0.989 | < 5.00 | 0.851 | 4.89 | 0.91 | < 4.40 |  |  |
| C-33-A (cervix, adherent) | 0.822 | 5.22 | 0.963 | < 5.30 |  |  | 0.979 | < 5.00 | 0.949 | < 4.70 | 0.74 | 4.92 | 0.91 | < 5.00 |
| HGC-27 (stomach, adherent) |  |  | 0.779 | 5.76 | 0.198 | 7.01 | 0.968 | < 5.00 | 0.94 | < 4.70 | 0.898 | 4.43 | 0.941 | < 5.00 |
| KYSE-140 (oesophagus, adherent) | 0.646 | 5.76 | 0.866 | < 5.30 | 0.663 | 5.71 | 0.926 | < 5.00 | 0.809 | 4.92 | 0.984 | < 4.40 |  |  |
| LN-229 (glioma, adherent) | 0.987 | < 4.99 | 0.974 | < 5.30 |  |  | 0.987 | < 5.00 | 0.925 | < 4.70 | 0.85 | 4.52 | 0.982 | < 5.00 |
| MIA-PaCa-2 (pancreas, adherent) | 0.984 | < 4.99 | 0.793 | 5.60 | 0.982 | < 4.99 | 0.972 | < 5.00 |  |  | 0.983 | < 4.40 |  |  |
| MKN28 (stomach, adherent) | 0.975 | < 4.99 | 0.913 | < 5.30 | 0.894 | < 4.99 | 0.98 | < 5.00 | 0.813 | 4.95 | 0.817 | 4.64 |  |  |
| NCI-H508 (large intestine, semi-adherent) |  |  | 0.895 | < 5.30 |  |  | 0.726 | 5.36 | 0.803 | 4.70 |  |  | 0.965 | < 5.00 |
